The chains are these.
B1: Caulobacter ParB omega fusion; a variant is named by its letters at X, in order, B8GW30 (parent)
chain: MESVVVGEPGMSEGRRGLGRGLSALLGEVDAAPAQAPGEQLGGSREAPIEILQRNPDQPRRTFREEDLEDLSNSIREKGVLQPILVRPSPDTAGEYQIVAGERAWRAAQRAGLKTVPIMVRELDDLAVLEIGIIENVQRADLNVLEEALSYKVLMEKFERTQENIAQTIGKSXSHVANXMRLLXLPDEVQSYLVSGELTAXHARAIAAAADPVALAKQIIEGGLSVRETEALARKAPNLSAGKSKGGRPPRVKDTDTQALESDLSSVLGLDVSIDHRGSTGTLTITYATLEQLDDLCNRLTRGI

Here are results for 153 variants from a collection of fitness landscapes (doi:10.1016/j.celrep.2020.107928).

Over roughly 81,000 sequences, “one-hybrid fitness for binding parS DNA” has its median near -0.17; the highest 2% begin near 0.51. The list shows a part of the results. Some results are limits rather than exact numbers.

This experiment covers variants of B1. Nature of the experiment: one-hybrid fitness for binding parS DNA (scaled: cognate 1, non-cognate 0); higher = stronger binding. The conditions noted are these: with parS DNA site. An outline of the steps:
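Values were rescaled so that cognate is 1 and non-cognate is 0. Each is a fitness, the log change in a variant's read ratio to wild type from Illumina reads of plasmids before and after selection, with three replicate libraries pooled and variants under 10 reads dropped. Selection of the Caulobacter ParB libraries, four specificity codons randomised, used E. coli USO with a HIS3 reporter, site 19 bp from the promoter, on M9-minus-histidine with 0.1 mM IPTG and 5 mM 3-AT for 48 hours at 37°C.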
Take HRPW: the “one-hybrid fitness for binding parS DNA” value is at most 0.2.
Then YTRH, with at most 0.2; and QYKS, with at most 0.2.
With DCFS, the “one-hybrid fitness for binding parS DNA” value is at most 0.2.
Then LPDT, with at most 0.2; and RATH, with 0.255; and SLWC, with at most 0.2.
Under RKNG stands 0.907; under WTLR, at most 0.2.
Take RWGE: the “one-hybrid fitness for binding parS DNA” value is at most 0.2.
With AYKG, the “one-hybrid fitness for binding parS DNA” value was at most 0.2.
Then RWPC, with 0.337; and DVWY, with at most 0.2; and DHAD, with at most 0.2.
Under DKQS stands at most 0.2; under DYIA, at most 0.2.
Under PAIT stands at most 0.2; under CHFG, at most 0.2.
Take ISGR: the “one-hybrid fitness for binding parS DNA” value was at most 0.2.
Then KMSN, with 0.216; and QPRG, with at most 0.2.
Under VQGR stands at most 0.2; under FGLS, at most 0.2; under HNMC, at most 0.2.
LTPY: the “one-hybrid fitness for binding parS DNA” value was at most 0.2.
Under RIPG stands 0.703; under PNMA, at most 0.2.
Under AGSE stands at most 0.2; under ALDR, at most 0.2.
Under KTRP stands at most 0.2; under TVRF, at most 0.2; under NYST, at most 0.2.
Turning to LTKE, the “one-hybrid fitness for binding parS DNA” value is at most 0.2.
Then PHCW, with at most 0.2; and QCPC, with at most 0.2; and HREL, with at most 0.2.
Under ISMG stands at most 0.2; under DMRR, at most 0.2; under APWP, at most 0.2.
With HFRF, the “one-hybrid fitness for binding parS DNA” value is at most 0.2.
Then SYER, with at most 0.2; and LHTE, with at most 0.2; and KMSS, with at most 0.2.
On to FLHR, for which the “one-hybrid fitness for binding parS DNA” value was at most 0.2.
Then MLWF, with 0.204.
As for VNHG, the “one-hybrid fitness for binding parS DNA” value is at most 0.2.
Then MGLP, with at most 0.2; and QMTT, with at most 0.2.
Under CNWG stands at most 0.2.
Under GMMR stands at most 0.2; under TLCE, at most 0.2.
SMSY: the “one-hybrid fitness for binding parS DNA” value was at most 0.2.
As for VPEK, the “one-hybrid fitness for binding parS DNA” value is at most 0.2.
Then ILSW, with at most 0.2.
Then TLKW, with at most 0.2; and MNDC, with at most 0.2.
Under KNTL stands at most 0.2.
Turning to QSSD, the “one-hybrid fitness for binding parS DNA” value is at most 0.2.
With MSVT, the “one-hybrid fitness for binding parS DNA” value is at most 0.2.
Under LYPT stands at most 0.2; under VMCG, at most 0.2.
Then NFMR, with at most 0.2.
For the variant YEAF, the “one-hybrid fitness for binding parS DNA” value was at most 0.2.
Under RAAE stands at most 0.2; under EVGC, at most 0.2; under PALD, at most 0.2.
Then GATV, with at most 0.2; and QHIM, with at most 0.2.
Under ITTI stands at most 0.2; under YDYM, at most 0.2; under GISY, at most 0.2.
For the variant NWRG, the “one-hybrid fitness for binding parS DNA” value is at most 0.2.
Under QREA stands at most 0.2; under DTWG, at most 0.2; under RLYL, at most 0.2.
Then EMAT, with at most 0.2.
Then AKDK, with at most 0.2.
For RKNY, the “one-hybrid fitness for binding parS DNA” value stood at 0.358.
Then TGDF, with at most 0.2; and SPIP, with at most 0.2.
Then QFKC, with at most 0.2.
Consider DGIS, for which the “one-hybrid fitness for binding parS DNA” value is at most 0.2.
Then KRHY, with at most 0.2.
Then EAER, with at most 0.2.
Consider SGLY, for which the “one-hybrid fitness for binding parS DNA” value was at most 0.2.
Under NQSS stands at most 0.2; under HSVL, at most 0.2; under HRME, at most 0.2.
Then HGDR, with at most 0.2; and SRTY, with at most 0.2; and MSSH, with at most 0.2.
Under KRMQ stands at most 0.2; under CWKP, at most 0.2; under WGLT, at most 0.2.
In the case of RWPS, the “one-hybrid fitness for binding parS DNA” value amounted to 0.444.
Take REMG: the “one-hybrid fitness for binding parS DNA” value was at most 0.2.
Under HAKP stands at most 0.2; under EGTS, at most 0.2; under QLGM, at most 0.2.
Regarding PNLN, the “one-hybrid fitness for binding parS DNA” value is at most 0.2.
Under VSLD stands at most 0.2; under NHDR, at most 0.2; under QKRR, at most 0.2.
Then LNQW, with at most 0.2; and PFVA, with at most 0.2.
Under LLWT stands at most 0.2; under SHKG, at most 0.2; under HSRY, at most 0.2.
Regarding ESTI, the “one-hybrid fitness for binding parS DNA” value is at most 0.2.
Then FNMT, with at most 0.2; and QTEG, with at most 0.2.
Then TVSR, with at most 0.2; and PHWA, with at most 0.2.
Then IESM, with at most 0.2.
For QKDV, the “one-hybrid fitness for binding parS DNA” value is at most 0.2.
Regarding DPRK, the “one-hybrid fitness for binding parS DNA” value is at most 0.2.
Then CGFR, with at most 0.2.
Under SHPK stands at most 0.2.
Then YIIG, with at most 0.2; and AYYA, with at most 0.2; and ELMR, with at most 0.2.
Take NTYW: the “one-hybrid fitness for binding parS DNA” value was at most 0.2.
Then AQDP, with at most 0.2; and YTLL, with at most 0.2; and TLFL, with at most 0.2.
Under QATE stands at most 0.2; under GRNE, at most 0.2.
Then DLQW, with at most 0.2.
Regarding AYGS, the “one-hybrid fitness for binding parS DNA” value was at most 0.2.
Then NWFS, with at most 0.2; and WSLA, with at most 0.2.
With CTPA, the “one-hybrid fitness for binding parS DNA” value was at most 0.2.
Then PCAH, with at most 0.2; and SWYG, with at most 0.2; and NCKH, with at most 0.2.
Then GPNA, with at most 0.2; and MCQG, with at most 0.2.
Turning to PNVE, the “one-hybrid fitness for binding parS DNA” value was at most 0.2.
Under FFKR stands at most 0.2; under KQYG, at most 0.2; under DVFC, at most 0.2.
Under PCTY stands at most 0.2; under MRCE, at most 0.2.
Take LYRY: the “one-hybrid fitness for binding parS DNA” value was at most 0.2.
Regarding RKNT, the “one-hybrid fitness for binding parS DNA” value turned out to be 0.723.
As to SNYC, the “one-hybrid fitness for binding parS DNA” value is at most 0.2.
Under YQMA stands at most 0.2; under PVSR, at most 0.2; under VHHC, at most 0.2.
Under ILYN stands at most 0.2; under AMWR, at most 0.2; under NFPG, at most 0.2.
Under QCYG stands at most 0.2.
